Lines with a small IC50 respond at low doses; where the fit passes the top or lowest dose, that dose stands as a limit. The AUC spans the tested range (256-fold, ending at the top dose) of the same fit; it is 1 without any effect and falls as sensitivity rises. Where the top dose is marked as inferred, it was calculated from the reported fits.
How the values were obtained:
FK866 = compound: O=C(/C=C/c1cccnc1)NCCCCC1CCN(C(=O)c2ccccc2)CC1 [FK866]; test: Viability of human cancer cell lines after 72 h of drug (GDSC screen); conditions: top dose 1 µM; top dose inferred
Protocol: (§1)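 Human cancer cell lines in 384-well plates, medium with 10% serum, drug for 72 h over a 256-fold dose range (nine 2-fold or five 4-fold steps up to the top dose). Adherent lines were fixed and stained with the nucleic acid dye Syto60, suspension lines read with resazurin; signal relative to control wells, capped at 0 and 100%. One two-parameter sigmoid per drug and line, fitted in a mixed model over all curves with the slope shared within a line.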

FR-180204 = compound: Nc1[nH]nc2nnc(-c3c(-c4ccccc4)nn4ccccc34)cc12 [FR-180204]; test: as above; conditions: top dose 20 µM; top dose inferred
Protocol: as §1

Row | Cell Line | AUC (FK866) | IC50 (FK866) | AUC (FR-180204) | IC50 (FR-180204)
1 | NCI-H211 (small cell lung carcinoma, adherent) | 0.057 | < 3.91 nM | 0.944 | > 20 µM
2 | NCI-H226 (lung squamous cell carcinoma, adherent) | 0.935 | > 1000 nM | 0.959 | > 20 µM
3 | NCI-H292 (lung adenocarcinoma, adherent) | 0.274 | 12.3 nM | 0.868 | > 20 µM
4 | NCI-H322M (lung adenocarcinoma, suspension) | 0.283 | 12.9 nM | 0.979 | > 20 µM
5 | NCI-H345 (small cell lung carcinoma, suspension) | 0.532 | 76.7 nM | 0.988 | > 20 µM
6 | NCI-H358 (lung adenocarcinoma, adherent) | 0.887 | > 1000 nM | 0.902 | > 20 µM
7 | NCI-H441 (lung adenocarcinoma, adherent) | 0.833 | > 1000 nM | 0.978 | > 20 µM
8 | NCI-H446 (small cell lung carcinoma, semi-adherent) | 0.046 | < 3.91 nM | 0.982 | > 20 µM
9 | NCI-H460 (large cell lung carcinoma, adherent) | 0.377 | 29.8 nM | 0.988 | > 20 µM
10 | NCI-H520 (lung squamous cell carcinoma, adherent) | 0.461 | 48.6 nM | 0.974 | > 20 µM
11 | NCI-H522 (lung adenocarcinoma, adherent) | 0.753 | 391 nM | 0.953 | > 20 µM
12 | NCI-H524 (small cell lung carcinoma, suspension) | 0.023 | < 3.91 nM | 0.991 | > 20 µM
13 | NCI-H526 (small cell lung carcinoma, suspension) | 0.232 | 10.9 nM | 0.979 | > 20 µM
14 | NCI-H596 (lung adenocarcinoma, adherent) | 0.549 | 88.6 nM | 0.981 | > 20 µM
15 | NCI-H630 (large intestine, adherent) | 0.877 | > 1000 nM | 0.964 | > 20 µM
16 | NCI-H650 (lung adenocarcinoma, adherent) | 0.978 | > 1000 nM | 0.981 | > 20 µM
17 | NCI-H661 (large cell lung carcinoma, adherent) | 0.627 | 151 nM | 0.972 | > 20 µM

Row | Cell Line | AUC (FK866) | IC50 (FK866) | AUC (FR-180204) | IC50 (FR-180204)
18 | NCI-H716 (large intestine, suspension) | 0.091 | < 3.91 nM | 0.972 | > 20 µM
19 | NCI-H720 (lung carcinoid, suspension) | 0.153 | 6.09 nM | 0.987 | > 20 µM
20 | NCI-H727 (lung carcinoid, adherent) | 0.947 | > 1000 nM | 0.949 | > 20 µM
21 | NCI-H747 (large intestine, adherent) | 0.588 | 115 nM | 0.934 | > 20 µM
22 | NCI-H810 (large cell lung carcinoma, adherent) | 0.05 | < 3.91 nM | 0.958 | > 20 µM
23 | NCI-H838 (lung adenocarcinoma, adherent) | 0.131 | 3.94 nM | 0.983 | > 20 µM
24 | NCI-H841 (small cell lung carcinoma, adherent) | 0.836 | 665 nM | 0.983 | > 20 µM
25 | NCI-H847 (small cell lung carcinoma, adherent) | 0.992 | > 1000 nM | 0.974 | > 20 µM
26 | NCI-H1048 (small cell lung carcinoma, adherent) | 0.162 | 6.72 nM | 0.945 | > 20 µM
27 | NCI-H1092 (small cell lung carcinoma, suspension) | 0.141 | 4.62 nM | 0.977 | > 20 µM
28 | NCI-H1155 (large cell lung carcinoma, suspension) | 0.021 | < 3.91 nM | 0.993 | > 20 µM
29 | NCI-H1299 (large cell lung carcinoma, adherent) | 0.81 | 681 nM | 0.932 | > 20 µM
30 | NCI-H1304 (small cell lung carcinoma, suspension) | 0.96 | > 1000 nM | 0.985 | > 20 µM
31 | NCI-H1355 (lung adenocarcinoma, adherent) | 0.546 | 88.4 nM | 0.977 | > 20 µM
32 | NCI-H1395 (lung adenocarcinoma, adherent) | 0.847 | > 1000 nM | 0.979 | > 20 µM
33 | NCI-H1417 (small cell lung carcinoma, suspension) | 0.108 | < 3.91 nM | 0.972 | > 20 µM
